# Data as given in the supplement of paper PMC9446081.
# The whole screen tested about 39,000 compounds, of which about 220 (0.56%) showed activity. The list shows a part of the results.
# Tested on: Escherichia coli K-12 BW25113
# Test: relative growth (OD600 normalised to plate interquartile mean) (fraction); higher = less growth inhibition, active = 0.2 or less
# Settings: 50 µM; LB; incubation time: overnight (16-24 h)
# 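Further: static incubation at 37 °C against the wild-type strain, values averaged over two biological replicates.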
row,SMILES,relative growth
1,C[C@@H]1CN([C@H](C)CO)C(=O)Cc2cc(NS(C)(=O)=O)ccc2O[C@H]1CN(C)C(=O)Nc1ccc(F)cc1,inactive: 0.989
2,C=CCN(CCCC)C(=O)[C@H]1N(CCOCCO)C(=O)[C@H]2[C@H](C(=O)O)[C@@H]3C=C[C@@]21O3,inactive: 1.02
3,Cc1ccccc1S(=O)(=O)N1C[C@@H](O)COC[C@@H]2O[C@@H](CC(=O)N3CCN(C)CC3)CC[C@H]21,inactive: 1
4,C[C@@H]1CCCCO[C@H](CN(C)C(=O)Nc2cccc3ccccc23)[C@H](C)CN([C@H](C)CO)C(=O)c2cc(NS(=O)(=O)c3cn(C)cn3)ccc2O1,inactive: 0.965
5,C[C@@H]1CN([C@@H](C)CO)C(=O)c2cc(/C=C/c3ccccc3)cnc2O[C@@H]1CN(C)S(=O)(=O)c1cn(C)cn1,inactive: 1
6,C[C@@H]1CCCCO[C@H](CN(C)C(=O)Nc2ccc(C(F)(F)F)cc2)[C@H](C)CN([C@@H](C)CO)C(=O)c2cc(NC(=O)Nc3cccc4ccccc34)ccc2O1,inactive: 1.02
7,O=C(C[C@H]1CC[C@H](NC(=O)c2ccc(F)cc2)[C@H](CO)O1)NCc1ccncn1,inactive: 1.01
8,Cc1sc2ncnc(N3CCC[C@@H](Cn4cc(C(C)(C)N)nn4)C3)c2c1C,inactive: 0.979
9,COc1ccc(NC(=O)Nc2ccc3c(c2)C(=O)N([C@H](C)CO)C[C@@H](C)[C@H](CN(C)C(=O)NC2CCCCC2)OCCCC[C@H](C)O3)cc1,inactive: 1.03
10,CC(C)NC(=O)N(C)C[C@@H]1Oc2c(NS(=O)(=O)c3ccc(F)cc3)cccc2C(=O)N([C@@H](C)CO)C[C@H]1C,inactive: 0.976
11,O=C(C[C@H]1CC[C@@H]2[C@H](COC[C@H](O)CN2Cc2cccc(C(F)(F)F)c2)O1)NCCc1ccncc1,inactive: 1.01
12,CCN1CCN(C2=C(NS(=O)(=O)c3ccc(Br)cc3)C(=O)c3ccccc3C2=O)CC1,inactive: 0.987
13,COc1cccc(NC(=O)N[C@@H]2CC[C@H](CC(=O)N3CCN(C)CC3)O[C@@H]2CO)c1,inactive: 1.03
14,COc1ccc(S(=O)(=O)N(C)C[C@@H]2Oc3ccc(NS(C)(=O)=O)cc3CC(=O)N([C@H](C)CO)C[C@H]2C)cc1,inactive: 1
15,Cc1ccc(S(=O)(=O)N2C[C@H](O)COC[C@@H]3O[C@H](CC(=O)N[C@H]4CCN(Cc5ccccc5)C4)CC[C@H]32)cc1,inactive: 1.02
16,COc1ccc(NC(=O)N(C)C[C@@H]2OCCCC[C@H](C)Oc3ccc(NC(=O)Nc4ccc(F)cc4)cc3C(=O)N([C@@H](C)CO)C[C@@H]2C)cc1,inactive: 1.05
17,C[C@@H]1CCCCO[C@H](CN(C)CC2CCCCC2)[C@H](C)CN([C@H](C)CO)C(=O)c2cc(NS(=O)(=O)c3ccc(F)cc3)ccc2O1,inactive: 1
18,Cc1ccc(S(=O)(=O)Nc2ccc3c(c2)C(=O)N([C@@H](C)CO)C[C@@H](C)[C@H](CN(C)Cc2ccc(C(F)(F)F)cc2)OCCCC[C@H](C)O3)cc1,inactive: 1.02
19,C[C@H]1CN([C@@H](C)CO)S(=O)(=O)c2ccc(Br)cc2O[C@H]1CN(C)Cc1ccccc1F,inactive: 0.975
20,O=c1c(O)c(-c2ccc(O)cc2)oc2ccccc12,inactive: 0.981
21,C[C@H]1CCCCO[C@@H](CN(C)C(=O)Nc2ccc(C(F)(F)F)cc2)[C@@H](C)CN([C@@H](C)CO)C(=O)c2cc(NC(=O)c3ccncc3)ccc2O1,inactive: 0.96

row,SMILES,relative growth
1,C[C@H](CO)N1C[C@H](C)[C@H](CN(C)Cc2ccc(Cl)c(Cl)c2)Oc2ccc(NC(=O)Cn3cnnn3)cc2C1=O,inactive: 0.989
2,Cc1noc(C)c1NC(=O)N(C)C[C@@H]1OCCCC[C@H](C)Oc2ccc(NC(=O)Nc3ccc4c(c3)OCO4)cc2C(=O)N([C@@H](C)CO)C[C@H]1C,inactive: 0.997
3,O=C(CCCCCNC(=O)OCCCCO[C@@H]1C[C@H](c2ccc(C(F)(F)F)cc2)C=C(C(=O)N2CCN(Cc3ccc4c(c3)OCO4)CC2)O1)NO,inactive: 1.03
4,Cc1nc(N)sc1-c1ccnc(Nc2ccc(N3CCOCC3)cc2)n1,inactive: 1.01
5,C[C@@H]1CN([C@H](C)CO)S(=O)(=O)c2ccc(Br)cc2O[C@H]1CN(C)C(=O)c1cnccn1,inactive: 1.01
6,C[C@H](CO)N1C[C@H](C)[C@@H](CN(C)C(=O)c2cccc(F)c2)Oc2cc(C#CC3CC3)ccc2S1(=O)=O,inactive: 1.03
7,CN1CCN(C(=O)C[C@@H]2C=C[C@H](NC(=O)c3ccc4c(c3)OCO4)[C@@H](CO)O2)CC1,inactive: 0.983
8,CCCN(C)C[C@H]1OCCCC[C@H](C)Oc2ccc(NC(=O)Nc3ccc4c(c3)OCO4)cc2C(=O)N([C@@H](C)CO)C[C@@H]1C,inactive: 0.977
9,C[C@@H]1CN([C@H](C)CO)S(=O)(=O)c2ccc(C#C[C@@H](C)O)cc2O[C@@H]1CN(C)C(=O)Nc1ccccc1,inactive: 0.999
10,CO[C@H]1CN(C)C(=O)c2ccc(NC(=O)C3CC3)cc2OC[C@@H](C)N(C(=O)Cc2ccccn2)C[C@@H]1C,inactive: 1.02
11,CN(C)CCCNC(=O)C[C@@H]1C=C[C@@H](NC(=O)Cc2cccnc2)[C@H](CO)O1,inactive: 0.984
12,C[C@@H]1CN([C@@H](C)CO)C(=O)c2ccccc2-c2ccccc2CO[C@@H]1CN(C)Cc1ccc(C(F)(F)F)cc1,inactive: 0.932
13,CC(C)NC(=O)N(C)C[C@H]1Oc2ccc(NS(=O)(=O)c3cccs3)cc2C(=O)N([C@@H](C)CO)C[C@H]1C,inactive: 0.968
14,C[C@H]1CN([C@@H](C)CO)C(=O)c2c(c3ccccc3n2C)-c2ccccc2CO[C@H]1CN(C)Cc1cccc(C(F)(F)F)c1,inactive: 1.02
15,Cc1noc(C)c1S(=O)(=O)Nc1ccc2c(c1)C(=O)N([C@@H](C)CO)C[C@@H](C)[C@H](CN(C)C(=O)Nc1ccc(F)cc1)OCCCC[C@@H](C)O2,inactive: 0.997
16,CCCCNc1cc(C(=O)O)cc(S(N)(=O)=O)c1Oc1ccccc1,inactive: 1.03
17,O=C(NO)c1cn(-c2ccc(C[C@H]3C(=O)O[C@@H](Cc4ccccc4)[C@H]4[C@@H]5C=CCCC=C5CN43)cc2)nn1,inactive: 0.984
18,COc1ccc(C[C@H](NC(=O)[C@H](C)NC(=O)CN2CCOCC2)C(=O)N[C@@H](Cc2ccccc2)C(=O)[C@@]2(C)CO2)cc1,inactive: 1.03
19,CC(CN1CC(=O)NC(=O)C1)N1CC(=O)NC(=O)C1 (configuration not stated),inactive: 1.08
20,C[C@H]1CN([C@@H](C)CO)C(=O)c2cc(C#Cc3ccncc3)cnc2O[C@@H]1CN(C)S(=O)(=O)c1ccccc1F,inactive: 1.01
21,CN(C)CC(=O)N[C@@H]1CC[C@H](CCNC(=O)C2CC2)O[C@@H]1CO,inactive: 1.01

row,SMILES,relative growth
1,COc1ccc(C#Cc2ccc3c(c2)O[C@H](CN(C)S(=O)(=O)c2ccccc2F)[C@H](C)CN([C@@H](C)CO)S3(=O)=O)cc1,inactive: 1.06
2,C[C@@H]1CN([C@@H](C)CO)C(=O)Cc2cc(NC(=O)Cc3ccccc3)ccc2O[C@@H]1CN(C)Cc1ccc(Oc2ccccc2)cc1,inactive: 0.987
3,C[C@@H]1CN([C@@H](C)CO)C(=O)Cc2cc(NS(=O)(=O)c3cn(C)cn3)ccc2O[C@H]1CN(C)S(=O)(=O)c1ccc(F)cc1,inactive: 0.971
4,C/C=C/c1ccc2c(c1)O[C@@H](CN(C)S(=O)(=O)c1ccc(F)cc1)[C@@H](C)CN([C@@H](C)CO)S2(=O)=O,inactive: 0.995
5,Cc1cc2cc(CN)ccc2[nH]1,inactive: 1.03
6,CCS(=O)(=O)NCC[C@H]1CC[C@@H](NS(=O)(=O)c2ccccc2C)[C@@H](CO)O1,inactive: 1.03
7,O=C(C[C@@H]1CC[C@H]2[C@@H](COC[C@H](O)CN2C(=O)c2ccccc2)O1)N1CCOCC1,inactive: 1
8,CC(C)(C)c1ccc(C(=O)CCCN2CCC(OC(c3ccccc3)c3ccccc3)CC2)cc1,inactive: 0.904
9,COc1ccc(S(=O)(=O)Nc2ccc3c(c2)CC(=O)N([C@H](C)CO)C[C@@H](C)[C@H](CN(C)S(=O)(=O)c2ccc(OC)cc2)O3)cc1,inactive: 0.983
10,NCc1ccc2c(c1)CCO2,inactive: 1.01
11,CN(C)CC(=O)N[C@@H]1CC[C@@H](CC(=O)NCCN2CCCCC2)O[C@@H]1CO,inactive: 1.01
12,COc1ccc(COCC23Oc4ccccc4[C@H]([C@H]2CO[Si](C)(C)C(C)(C)C)n2c(c4ccccc4c(-c4ccccc4)c2=O)N3C)cc1,inactive: 1.03
13,CCOC(=O)C1=CC2(CC)CCCN3CCc4c(n1c1ccccc41)C32 (configuration not stated),inactive: 1.08
14,C/C=C/c1ccc2c(c1)O[C@H](CN(C)C(=O)c1ccc3c(c1)OCO3)[C@H](C)CN([C@H](C)CO)S2(=O)=O,inactive: 0.982
15,C[C@@H]1CN([C@@H](C)CO)C(=O)c2cc(NS(C)(=O)=O)ccc2O[C@H]1CN(C)S(=O)(=O)c1ccccc1,inactive: 1
16,Cc1noc(C)c1NC(=O)N(C)C[C@H]1Oc2ccc(NC(=O)CCN3CCOCC3)cc2CC(=O)N([C@H](C)CO)C[C@@H]1C,inactive: 1
17,COCC(=O)N1C[C@@H](C)[C@H](OC)CN(C)C(=O)c2cc(NC(=O)Nc3ccccc3)ccc2OC[C@H]1C,inactive: 1.01
18,C[C@H](CO)N1C[C@H](C)[C@@H](CN(C)Cc2ccc(Oc3ccccc3)cc2)Oc2c(NC(=O)Nc3ccc(C(F)(F)F)cc3)cccc2C1=O,inactive: 0.795
19,COc1ccc(NC(=O)N(C)C[C@@H]2Oc3ccc(NC(=O)C4CC4)cc3CC(=O)N([C@@H](C)CO)C[C@H]2C)cc1,inactive: 1.01
20,Cl.NC12CC3CC(CC(C3)C1)C2,inactive: 1.12
